Measured values reported in patent US20230143604A1, “QW DOSING OF GIP RECEPTOR AGONIST PEPTIDE COMPOUNDS AND USES THEREOF” (TAKEDA PHARMACEUTICAL COMPANY LIMITED, priority 2020, published 2023).
Like-named read-outs stand apart in the source and are kept apart here. At least one peptide structure holds a part that was inferred or is arguable (an end, a ring closure or a residue). Starred links: 1 amine or outer side, 2 acyl side, 3 side chain; linkers in the order of their positions; H or OH if unused. Non-standard residues stand in square brackets, D forms with d. Residues, ends and D or L forms follow the SMILES beside them. Groups on a side chain read outwards from the residue. No end group written: not given here. *: point of attachment. C20 diacid = O=C(O)CCCCCCCCCCCCCCCCCCC(=O)*; C18 diacid = O=C(O)CCCCCCCCCCCCCCCCC(=O)*; γGlu = O=C(O)[C@H](CCC(=O)[*:2])N[*:1]; NMeY = CN[C@@H](Cc1ccc(O)cc1)C(=O)O; Stearoyl = CCCCCCCCCCCCCCCCCC(=O)*; AEEA = NCCOCCOCC(=O)O; Aib = CC(C)(N)C(=O)O

Legend:
human GIPR = biological target: T1, human GIPR (Homo sapiens, UniProt P48546); assay: Human GIPR agonist activity, intracellular cAMP accumulation; type: cell-based
T1 construct: HEK-293T cells overexpressing full-length human GIPR; FLAG (N); host or cells: HEK-293T
T1 sequence (P48546 22-466): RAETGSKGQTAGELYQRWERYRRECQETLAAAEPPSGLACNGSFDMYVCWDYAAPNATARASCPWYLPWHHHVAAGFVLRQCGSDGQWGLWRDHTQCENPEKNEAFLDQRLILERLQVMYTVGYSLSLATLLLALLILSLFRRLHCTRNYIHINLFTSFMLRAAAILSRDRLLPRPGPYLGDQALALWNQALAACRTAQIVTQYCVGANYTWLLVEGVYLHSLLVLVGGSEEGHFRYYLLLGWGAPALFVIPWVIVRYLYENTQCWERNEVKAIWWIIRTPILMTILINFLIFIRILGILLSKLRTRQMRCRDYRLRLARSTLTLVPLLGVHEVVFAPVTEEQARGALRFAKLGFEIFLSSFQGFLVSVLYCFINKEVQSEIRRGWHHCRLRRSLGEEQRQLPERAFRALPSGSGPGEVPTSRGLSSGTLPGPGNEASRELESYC
Experimental: Cells are cultured per the manufacturer's protocol in DMEM with 10% fetal bovine serum and 1 μg/mL puromycin and stored in frozen aliquots to be used as assay ready cells. On the day of the assay, cells are removed from frozen storage, washed two times in 1× Kreb's Ringer Buffer (Zenbio, Research Triangle Park, N.C.), and re-suspended to a concentration of 4×10^5 cells/mL in 1× Kreb's Ringer Buffer. […] Cells are incubated with test compound for 1 hr at room temperature in the dark, and cAMP accumulation is measured using the Cisbio HiRange cAMP assay kit (Bedford, Mass.) per the manufacturer's protocol. Anti-cAMP antibody and d2-cAMP tracer reagents diluted in lysis/detection buffer are incubated in the dark for 1 hr, and results are measured on an Envision plate reader (Perkin Elmer, Waltham, Mass.). Data is normalized using 1 nM GIP as 100% activity, and DMSO alone as 0% activity.

human GLP-1R = biological target: T2, human GLP-1R (Homo sapiens, UniProt P43220); assay: Human GLP1R agonist activity, intracellular cAMP accumulation; type: cell-based
T2 construct: HEK-293T cells overexpressing full-length human GLP-1R; FLAG (N); host or cells: HEK-293T
Outline: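 Frozen assay-ready cells washed and resuspended at 4×10^5 cells/mL in Krebs Ringer buffer, then incubated with compound 1 hr at room temperature in the dark. cAMP read by HTRF (anti-cAMP antibody, d2-cAMP tracer). Normalised to 1 nm GLP-1 (100%) and DMSO (0%).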

[1] = HEK-293T cells overexpressing human GIPR, 1 hr, read-out: Human GIPR cAMP EC50, HEK293T
[2] = HEK-293T cells overexpressing human GLP-1R, 1 hr, read-out: Human GLP1R cAMP EC50, HEK293T

T2 sequence (P43220 24-463): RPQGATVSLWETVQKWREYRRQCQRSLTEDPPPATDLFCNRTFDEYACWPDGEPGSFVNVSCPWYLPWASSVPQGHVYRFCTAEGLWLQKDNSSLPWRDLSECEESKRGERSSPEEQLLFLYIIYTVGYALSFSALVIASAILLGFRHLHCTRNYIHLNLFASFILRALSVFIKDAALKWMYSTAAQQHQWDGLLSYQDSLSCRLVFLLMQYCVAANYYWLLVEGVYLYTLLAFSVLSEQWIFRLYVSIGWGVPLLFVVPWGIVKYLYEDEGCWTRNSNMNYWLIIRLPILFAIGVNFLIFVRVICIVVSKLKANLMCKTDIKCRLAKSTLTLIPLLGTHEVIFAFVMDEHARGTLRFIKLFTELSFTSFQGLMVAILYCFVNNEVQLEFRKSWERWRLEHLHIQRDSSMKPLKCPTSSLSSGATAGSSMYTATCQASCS

Row | Compound | EC50 (human GIPR; [1]) [pM] | EC50 (human GLP-1R; read-out: Human GLP1R cAMP EC50, HEK293T, HEK-293T cells overexpressing human GLP-1R, 1 hr) [pM] | EC50 (human GIPR; read-out: Human GIPR cAMP EC50, HEK293T, HEK-293T cells overexpressing human GIPR, 1 hr) [pM] | EC50 (human GLP-1R; [2]) [pM]
1 | CCCCCCCCCCCCCCCCCC(=O)N[C@@H](CCC(=O)N[C@@H](CCC(=O)NCCOCCOCC(=O)NCCOCCOCC(=O)NCCCC[C@H](NC(=O)C(C)(C)NC(=O)[C@H](CCC(N)=O)NC(=O)[C@H](C)NC(=O)C(C)(C)NC(=O)[C@H](CCCNC(=N)N)NC(=O)[C@H](CC(=O)O)NC(=O)[C@H](CC(C)C)NC(=O)[C@H](C)NC(=O)[C@@H](NC(=O)[C@H](CO)NC(=O)[C@H](Cc1ccc(O)cc1)NC(=O)[C@H](CC(=O)O)NC(=O)[C@H](CO)NC(=O)[C@@H](NC(=O)[C@H](Cc1ccccc1)NC(=O)[C@@H](NC(=O)CNC(=O)[C@H](CCC(=O)O)NC(=O)C(C)(C)NC(=O)[C@H](Cc1ccc(O)cc1)NC)[C@@H](C)O)[C@@H](C)CC)[C@@H](C)CC)C(=O)N[C@@H](Cc1ccccc1)C(=O)N[C@H](C(=O)N[C@@H](CC(N)=O)C(=O)N[C@@H](Cc1c[nH]c2ccccc12)C(=O)N[C@@H](CC(C)C)C(=O)N[C@@H](CC(C)C)C(=O)N[C@@H](C)C(=O)N[C@@H](CCC(N)=O)C(=O)N[C@@H](CCCCN)C(=O)NCC(=O)O)C(C)C)C(=O)O)C(=O)O [Compound 203] (H-[NMeY][Aib]EGTFISDYSIALDR[Aib]AQ[Aib]K([AEEA-AEEA-γGlu-γGlu-Stearoyl])FVNWLLAQKG-OH) | 1.3 |  |  | 
2 | CC[C@H](C)[C@H](NC(=O)[C@H](CO)NC(=O)[C@H](Cc1ccc(O)cc1)NC(=O)[C@H](CC(=O)O)NC(=O)[C@H](CO)NC(=O)[C@@H](NC(=O)[C@H](Cc1ccccc1)NC(=O)[C@@H](NC(=O)CNC(=O)[C@H](CCC(=O)O)NC(=O)C(C)(C)NC(=O)[C@H](Cc1ccc(O)cc1)NC)[C@@H](C)O)[C@@H](C)CC)C(=O)N[C@@H](C)C(=O)N[C@@H](CC(C)C)C(=O)N[C@@H](CC(=O)O)C(=O)N[C@@H](CCCNC(=N)N)C(=O)N[C@@H](CCCCNC(=O)COCCOCCNC(=O)COCCOCCNC(=O)CC[C@H](NC(=O)CCCCCCCCCCCCCCCCC(=O)O)C(=O)O)C(=O)N[C@@H](Cc1c[nH]cn1)C(=O)N[C@@H](CCC(N)=O)C(=O)N[C@@H](CCC(N)=O)C(=O)N[C@@H](CC(N)=O)C(=O)N[C@@H](Cc1ccccc1)C(=O)N[C@H](C(=O)N[C@@H](CC(N)=O)C(=O)N[C@@H](Cc1c[nH]c2ccccc12)C(=O)N[C@@H](CC(C)C)C(=O)N[C@@H](CC(C)C)C(=O)N[C@@H](C)C(=O)N[C@@H](CCC(N)=O)C(=O)N[C@@H](CCCNC(=N)N)C(=O)N1CCC[C@H]1C(=O)N[C@@H](CO)C(=O)N[C@@H](CO)C(=O)NCC(=O)N[C@@H](C)C(=O)N1CCC[C@H]1C(=O)N1CCC[C@H]1C(=O)N1CCC[C@H]1C(=O)N[C@@H](CO)C(N)=O)C(C)C [Compound 4] (H-[NMeY][Aib]EGTFISDYSIALDRK([AEEA-AEEA-γGlu-C18 diacid])HQQNFVNWLLAQRPSSGAPPPS-NH2) |  | 38900 | 1 | 
3 | CC[C@H](C)[C@H](NC(=O)[C@H](Cc1ccccc1)NC(=O)[C@@H](NC(=O)CNC(=O)[C@H](CCC(=O)O)NC(=O)C(C)(C)NC(=O)[C@H](Cc1ccc(O)cc1)NC)[C@@H](C)O)C(=O)N[C@@H](CO)C(=O)N[C@@H](CC(=O)O)C(=O)N[C@@H](Cc1ccc(O)cc1)C(=O)N[C@@H](CO)C(=O)N[C@H](C(=O)NC(C)(C)C(=O)N[C@@H](CC(C)C)C(=O)N[C@@H](CC(=O)O)C(=O)N[C@@H](CCCNC(=N)N)C(=O)NC(C)(C)C(=O)N[C@@H](C)C(=O)N[C@@H](CCC(N)=O)C(=O)NC(C)(C)C(=O)N[C@@H](CCCCNC(=O)COCCOCCNC(=O)COCCOCCNC(=O)CC[C@H](NC(=O)CC[C@H](NC(=O)CCCCCCCCCCCCCCCCCCC(=O)O)C(=O)O)C(=O)O)C(=O)N[C@@H](Cc1ccccc1)C(=O)N[C@H](C(=O)N[C@@H](CC(N)=O)C(=O)N[C@@H](Cc1c[nH]c2ccccc12)C(=O)N[C@@H](CC(C)C)C(=O)N[C@@H](CC(C)C)C(=O)N[C@@H](C)C(=O)N[C@@H](CCC(N)=O)C(=O)N[C@@H](CCCCN)C(=O)NCC(=O)O)C(C)C)[C@@H](C)CC [Compound 65] (H-[NMeY][Aib]EGTFISDYSI[Aib]LDR[Aib]AQ[Aib]K([AEEA-AEEA-γGlu-γGlu-C20 diacid])FVNWLLAQKG-OH) | 1 |  |  | 
4 | CC[C@H](C)[C@H](NC(=O)[C@H](CO)NC(=O)[C@H](Cc1ccc(O)cc1)NC(=O)[C@H](CC(=O)O)NC(=O)[C@H](CO)NC(=O)[C@@H](NC(=O)[C@H](Cc1ccccc1)NC(=O)[C@@H](NC(=O)CNC(=O)[C@H](CCC(=O)O)NC(=O)C(C)(C)NC(=O)[C@H](Cc1ccc(O)cc1)NC)[C@@H](C)O)[C@@H](C)CC)C(=O)N[C@@H](C)C(=O)N[C@@H](CC(C)C)C(=O)N[C@@H](CC(=O)O)C(=O)N[C@@H](CCCNC(=N)N)C(=O)NC(C)(C)C(=O)N[C@@H](Cc1c[nH]cn1)C(=O)N[C@@H](CCC(N)=O)C(=O)N[C@@H](CCC(N)=O)C(=O)N[C@@H](CC(N)=O)C(=O)N[C@@H](Cc1ccccc1)C(=O)N[C@H](C(=O)N[C@@H](CC(N)=O)C(=O)N[C@@H](Cc1c[nH]c2ccccc12)C(=O)N[C@@H](CC(C)C)C(=O)N[C@@H](CC(C)C)C(=O)N[C@@H](C)C(=O)N[C@@H](CCC(N)=O)C(=O)N[C@@H](CCCCNC(=O)COCCOCCNC(=O)COCCOCCNC(=O)CC[C@H](NC(=O)CCCCCCCCCCCCCCCCC(=O)O)C(=O)O)C(=O)O)C(C)C [Compound 191] (H-[NMeY][Aib]EGTFISDYSIALDR[Aib]HQQNFVNWLLAQK([AEEA-AEEA-γGlu-C18 diacid])-OH; C-terminus assumed) | 3.2 |  |  | 97700
5 | CC[C@H](C)[C@H](NC(=O)[C@H](CO)NC(=O)[C@H](Cc1ccc(O)cc1)NC(=O)[C@H](CC(=O)O)NC(=O)[C@H](CO)NC(=O)[C@@H](NC(=O)[C@H](Cc1ccccc1)NC(=O)[C@@H](NC(=O)CNC(=O)[C@H](CCC(=O)O)NC(=O)C(C)(C)NC(=O)[C@H](Cc1ccc(O)cc1)NC)[C@@H](C)O)[C@@H](C)CC)C(=O)N[C@@H](C)C(=O)N[C@@H](CC(C)C)C(=O)N[C@@H](CC(=O)O)C(=O)N[C@@H](CCCNC(=N)N)C(=O)NC(C)(C)C(=O)N[C@@H](C)C(=O)N[C@@H](CCC(N)=O)C(=O)NC(C)(C)C(=O)N[C@@H](CCCCNC(=O)COCCOCCNC(=O)COCCOCCNC(=O)CC[C@H](NC(=O)CC[C@H](NC(=O)CCCCCCCCCCCCCCCCC(=O)O)C(=O)O)C(=O)O)C(=O)N[C@@H](Cc1ccccc1)C(=O)N[C@H](C(=O)N[C@@H](CC(N)=O)C(=O)N[C@@H](Cc1c[nH]c2ccccc12)C(=O)N[C@@H](CC(C)C)C(=O)N[C@@H](CC(C)C)C(=O)N[C@@H](C)C(=O)N[C@@H](CCC(N)=O)C(=O)N[C@@H](CCCNC(=N)N)C(=O)NCC(=O)O)C(C)C [Compound 213] (H-[NMeY][Aib]EGTFISDYSIALDR[Aib]AQ[Aib]K([AEEA-AEEA-γGlu-γGlu-C18 diacid])FVNWLLAQRG-OH) | 1.1 |  |  | 
6 | CC[C@H](C)[C@H](NC(=O)[C@H](CO)NC(=O)[C@H](Cc1ccc(O)cc1)NC(=O)[C@H](CC(=O)O)NC(=O)[C@H](CO)NC(=O)[C@@H](NC(=O)[C@H](Cc1ccccc1)NC(=O)[C@@H](NC(=O)CNC(=O)[C@H](CCC(=O)O)NC(=O)C(C)(C)NC(=O)[C@@H](N)Cc1ccc(O)cc1)[C@@H](C)O)[C@@H](C)CC)C(=O)N[C@@H](C)C(=O)N[C@@H](CCSC)C(=O)N[C@@H](CC(=O)O)C(=O)N[C@@H](CCCCN)C(=O)N[C@H](C(=O)N[C@@H](Cc1c[nH]cn1)C(=O)N[C@@H](CCC(N)=O)C(=O)N[C@@H](CCC(N)=O)C(=O)N[C@@H](CC(=O)O)C(=O)N[C@@H](Cc1ccccc1)C(=O)N[C@H](C(=O)N[C@@H](CC(N)=O)C(=O)N[C@@H](Cc1c[nH]c2ccccc12)C(=O)N[C@@H](CC(C)C)C(=O)N[C@@H](CC(C)C)C(=O)N[C@@H](C)C(=O)N[C@@H](CCC(N)=O)C(=O)N[C@@H](CCCCNC(=O)COCCOCCNC(=O)COCCOCCNC(=O)CC[C@H](NC(=O)CCCCCCCCCCCCCCCCC(=O)O)C(=O)O)C(=O)NCC(=O)N[C@@H](CCCCN)C(=O)N[C@@H](CCCCN)C(=O)N[C@@H](CC(N)=O)C(=O)N[C@@H](CC(=O)O)C(=O)N[C@@H](Cc1c[nH]c2ccccc12)C(=O)N[C@@H](CCCCN)C(=O)N[C@@H](Cc1c[nH]cn1)C(=O)N[C@@H](CC(N)=O)C(=O)N[C@H](C(=O)N[C@H](C(=O)N[C@@H](CCC(N)=O)C(=O)O)[C@@H](C)O)[C@@H](C)CC)C(C)C)[C@@H](C)CC [Compound 189] | 1.1 |  |  | 219000
7 | Y[Aib]EGTFISDYSIAMDKK([AEEA-AEEA-γGlu-C18 diacid])HQQDFVNWLLAQKGKKNDWKHNITQ-OH [Compound 188] | 1.9 |  |  | 
8 | Y[Aib]EGTFISDYSIAK([AEEA-AEEA-γGlu-C18 diacid])DKIHQQDFVNWLLAQKGKKNDWKHNITQ-OH [Compound 187] | 3.2 |  |  | 562000
